Screen size: about 48,000 compounds; about 450 (0.94%) were called active. Not shown: some 19% with an inconclusive outcome. Calls follow the shape of the dose curve; as a rule, active = well fitted inhibition curve with a large enough effect; inconclusive = small, poorly fitted or top-dose-only effect; inactive = no such curve, though single readings can be large or run the other way. This is one part of the list.
Assay: Primary qHTS for Identification of Small Molecule Inhibitors of Huntingtin Promoter Activity; also: nearly all actives have a fitted effect of over 50% in size
Conditions: HEK293 HTT promoter firefly luciferase reporter (activity 0% = vehicle and -100% = no light), 24 h; series mostly up to 57.5 µM; activity change, negative = inhibition: at the top concentration
Summary of the method: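 HEK293 luciferase promoter-reporter cells (2,500/well) plated 24 h, then compounds added at up to 57.5 uM final for 24 h at 37 °C. Firefly luminescence by Dual-Glo, normalized to vehicle (0%) and zero RLU (-100%).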

Activity change, negative = inhibition, inactive:
CCc1ccc(NC(=O)CSC2=Nc3ccccc3C3=NC(CCC(=O)NCc4ccco4)C(=O)N23)cc1 (configuration not stated) -17.9%
COc1ccc(C(=O)n2nc(-c3ccco3)nc2NCc2cccs2)cc1OC 19.6%
CCc1ccccc1NC(=O)N(C)CCc1c(C)nn(C)c1C -3.2%
Cc1ccc(-c2nc3sc(CCNC(=O)c4ccc(C)c(C)c4)c(C)n3n2)cc1 9.51%
CC(=O)c1cccc(NC(=O)c2cc(-c3ccc(Cl)s3)nc3ccccc23)c1 -14.5%
COc1ccc(NC(=O)CC2C(=O)N(c3cccc(C)c3)C(=O)N2C2CCCCC2)cc1 (configuration not stated) -28.6%
CCC(C)(Oc1ccc(C2(c3ccc(OC(C)(CC)C(=O)O)cc3)CCCCC2)cc1)C(=O)O (configuration not stated) 12.7%
CC(C)c1ccc(S(=O)(=O)c2nnn3c2nc(N2CCCCC2)c2sccc23)cc1 8.42%
Cc1ccc(C)c(Cn2c(-c3cccs3)nc3ccccc32)c1 -27.8%
Cc1ccc(C)c(CN2C(=O)N(c3cc(Cl)ccc3C)S(=O)(=O)c3ccccc32)c1 -16%
CC(C)Cc1ccc(S(=O)(=O)Nc2cc3c(cc2N2CCOCC2)n(C)c(=O)c(=O)n3C)cc1 -1.6%
CCOc1ccccc1CNS(=O)(=O)c1ccc2[nH]c(=O)ccc2c1 -21.9%
CN(Cc1ccccc1)S(=O)(=O)c1cc(Br)cc2c1N(C(=O)C1CC1)CC2 -31.8%
COc1ccc(NC(=O)CSc2nnc(NC(=O)Nc3ccc(OC)cc3)s2)cc1 38.6%
CCCCN(C)CCCNC(=O)c1cc(-c2ccc(Br)s2)nc2ccccc12 -26.2%
Cc1cccc(NC(=O)CCCCCn2c(=O)[nH]c3ccsc3c2=O)c1 -11.9%
CCOc1ccc(CCNC(=O)CCCn2nc(C)c3sc4ccccc4c3c2=O)cc1 5.04%
Cc1cccc(N2CCN(C(=O)c3cn(CC(C)C)c(=O)c4c3c3ccccc3n4C)CC2)c1C -16.2%
Cc1ccc(NS(=O)(=O)c2c(C)[nH]c(=O)[nH]c2=O)c(C)c1 -4.71%
COc1cccc(N2CC(NC(=O)CCCc3ccccc3)CC2=O)c1 (configuration not stated) -14%
Cc1ccc(-c2noc(CNC(=O)c3ccc(Br)o3)n2)cc1 -9.92%
CCOc1ccccc1CNC(=O)C1CCN(c2nn3cc(-c4ccc(F)cc4)nc3s2)CC1 16.9%
CCCCCCOc1ccc(C2C(=O)N(C3CCCCC3)CC(=O)N2CCC)cc1 (configuration not stated) -28.6%
Cc1ccc(C(=O)Nc2cc3nn(-c4ccccc4)nc3cc2Cl)c(C)c1 0.317%
N#C/C(=C\c1ccc(Cl)cc1Cl)c1nc(-c2cccc(Cl)c2)cs1 5.95%
CCOc1ccccc1N(CC(=O)NCCSc1ccccc1)S(=O)(=O)c1ccccc1 -18.4%
COc1ccccc1Cc1nc2ccccc2nc1SCC(=O)N(C)c1ccc(F)cc1 -4.02%
